Laboratory results taken from US8067379B2, “Sulfur compounds as inhibitors of hepatitis C virus NS3 serine protease” (Schering Corporation, priority 2004, dated 2011).

Target: Recombinant heterodimeric HCV NS3/NS4A protease (strain 1a) (Hepatitis C virus genotype 1a, UniProt P27958)
Experiment: Spectrophotometric assay for HCV serine protease inhibitory activity (chromogenic ester substrates)
Assay type: biochemical
Conditions: Table 3A; class symbols; read-out: Ki* Range

Structure (SMILES)	Ki
CC1([C@H](NC(=O)NC2(CS(=O)(=O)c3ccccc3)CCCCC2)C(=O)N2C[C@H]3[C@@H]([C@H]2C(=O)NC(CC2CC2)C(=O)C(=O)NC2CC2)C3(C)C)CCCCC1 (stereo partly drawn) [Compound 465]	75 to 250 nM
C=CCNC(=O)C(=O)C(CC1CC1)NC(=O)[C@@H]1[C@@H]2[C@H](CN1C(=O)[C@@H](NC(=O)N[C@@]1(CS(=O)(=O)C(C)(C)C)C[C@H]3C[C@H]3C1)C1(C)CCCCC1)C2(C)C (stereo partly drawn) [Compound 466]	< 75 nM
CC1([C@H](NC(=O)NC2(CS(=O)(=O)C(C)(C)C)CCCCC2)C(=O)N2C[C@H](C(F)(F)F)C[C@H]2C(=O)NC(CC2CC2)C(=O)C(=O)NC2CC2)CCCCC1 (stereo partly drawn) [Compound 467]	75 to 250 nM
C=CCNC(=O)C(=O)C(CC1CC1)NC(=O)[C@@H]1[C@@H]2[C@H](CN1C(=O)[C@@H](NC(=O)N[C@]1(CS(=O)(=O)C(C)(C)C)C[C@H]3C[C@H]3C1)C1(C)CCCCC1)C2(C)C (stereo partly drawn) [Compound 468]	75 to 250 nM
C#CCCC(NC(=O)[C@@H]1[C@@H]2[C@H](CN1C(=O)[C@@H](NC(=O)N[C@]1(CS(=O)(=O)C(C)(C)C)C[C@H]3C[C@H]3C1)C1(C)CCCCC1)C2(C)C)C(=O)C(=O)NCC=C (stereo partly drawn) [Compound 469]	< 75 nM
CC1([C@H](NC(=O)N[C@]2(CS(=O)(=O)C(C)(C)C)C[C@H]3C[C@H]3C2)C(=O)N2C[C@H]3[C@@H]([C@H]2C(=O)NC(CC2CC2)C(=O)C(=O)NC2CC2)C3(C)C)CCCCC1 (stereo partly drawn) [Compound 470]	75 to 250 nM
CC1([C@H](NC(=O)NC2(CS(=O)(=O)C(C)(C)C)CCCCC2)C(=O)N2C[C@H]3[C@@H]([C@H]2C(=O)NC(CCC2CC2)C(=O)C(=O)NC2CC2)C3(C)C)CCCCC1 (stereo partly drawn) [Compound 472]	< 75 nM
C=CCNC(=O)C(=O)C(CC1CC1)NC(=O)[C@@H]1[C@@H]2[C@H](CN1C(=O)[C@@H](NC(=O)N[C@@]1(CS(=O)(=O)C(C)(C)C)[C@H](C)CCC[C@@H]1C)C1(C)CCCCC1)C2(C)C (stereo partly drawn) [Compound 473]	< 75 nM
C=CCNC(=O)C(=O)C(CCCC)NC(=O)[C@@H]1[C@@H]2[C@H](CN1C(=O)[C@@H](NC(=O)N[C@@]1(CS(=O)(=O)C(C)(C)C)[C@H](C)CCC[C@@H]1C)C1(C)CCCCC1)C2(C)C (stereo partly drawn) [Compound 474]	< 75 nM
CCCC(C)(C)S(=O)(=O)CC1(NC(=O)N[C@H](C(=O)N2C[C@H]3[C@@H]([C@H]2C(=O)NC(CC2CC2)C(=O)C(=O)NC2CC2)C3(C)C)C(C)(C)C)CCCCC1 (stereo partly drawn) [Compound 475]	< 75 nM
CC(C)S(=O)(=O)CC1(NC(=O)N[C@H](C(=O)N2C[C@H]3[C@@H]([C@H]2C(=O)NC(CC2CC2)C(=O)C(=O)NC2CC2)C3(C)C)C(C)(C)C)CCCCC1 (stereo partly drawn) [Compound 476]	75 to 250 nM
CC(C)(C)[C@H](NC(=O)NC1(CS(=O)(=O)C(C)(C)C)CCCCC1)C(=O)N1C[C@H]2[C@@H]([C@H]1C(=O)NC(CCC1CC1)C(=O)C(=O)NC1CC1)C2(C)C (stereo partly drawn) [Compound 477]	< 75 nM
CCNC(=O)C(=O)C(CCC1CC1)NC(=O)[C@@H]1[C@@H]2[C@H](CN1C(=O)[C@@H](NC(=O)NC1(CS(=O)(=O)C(C)(C)C)CCCCC1)C(C)(C)C)C2(C)C (stereo partly drawn) [Compound 478]	< 75 nM
CCNC(=O)C(=O)C(CCC1CC1)NC(=O)[C@@H]1[C@@H]2[C@H](CN1C(=O)[C@@H](NC(=O)NC1(CS(=O)(=O)C(C)(C)C)CCCCC1)C1(C)CCCCC1)C2(C)C (stereo partly drawn) [Compound 479]	< 75 nM
CC(C)(C)[C@H](NC(=O)NC1(CS(=O)(=O)C(C)(C)C)CCCCC1)C(=O)N1C[C@H]2[C@@H]([C@H]1C(=O)NC(CCCCF)C(=O)C(=O)NC1CC1)C2(C)C (stereo partly drawn) [Compound 480]	< 75 nM
CCC(C)(C)S(=O)(=O)CC1(NC(=O)N[C@H](C(=O)N2C[C@H]3[C@@H]([C@H]2C(=O)NC(CC2CC2)C(=O)C(=O)NC2CC2)C3(C)C)C(C)(C)C)CCCCC1 (stereo partly drawn) [Compound 481]	< 75 nM
CC(C)(C)[C@H](NC(=O)NC1(CS(=O)(=O)c2ccccc2)CCCCC1)C(=O)N1C[C@H]2[C@@H]([C@H]1C(=O)NC(CC1CC1)C(=O)C(=O)NC1CC1)C2(C)C (stereo partly drawn) [Compound 482]	75 to 250 nM
CC1(C)[C@@H]2[C@@H](C(=O)NC(CC3CCC3)C(=O)C(=O)NC3CC3)N(C(=O)[C@@H](NC(=O)NC3(CS(=O)(=O)C(C)(C)C)CCCCC3)C3Cc4ccccc4C3)C[C@@H]21 (stereo partly drawn) [Compound 483]	75 to 250 nM
CCCCC(NC(=O)[C@@H]1[C@@H]2[C@H](CN1C(=O)[C@@H](NC(=O)NC1(CS(=O)(=O)C(C)(C)C)CCCCC1)C(C)(C)C)C2(C)C)C(=O)C(=O)NC1CC1 (stereo partly drawn) [Compound 484]	< 75 nM
CCC(C)(C)S(=O)(=O)CC1(NC(=O)N[C@H](C(=O)N2C[C@H]3[C@@H]([C@H]2C(=O)NC(CC2CC2)C(=O)C(=O)NC2CC2)[C@]3(C)CF)C2(C)CCCCC2)CCCCC1 (stereo partly drawn) [Compound 485]	75 to 250 nM
C=CCNC(=O)C(=O)C(CCCCF)NC(=O)[C@@H]1[C@@H]2[C@H](CN1C(=O)[C@@H](NC(=O)NC1(CS(=O)(=O)C(C)(C)C)CCCCC1)C(C)(C)C)C2(C)C (stereo partly drawn) [Compound 486]	< 75 nM
C=CCNC(=O)C(=O)C(CCCC(F)F)NC(=O)[C@@H]1[C@@H]2[C@H](CN1C(=O)[C@@H](NC(=O)NC1(CS(=O)(=O)C(C)(C)C)CCCCC1)C(C)(C)C)C2(C)C (stereo partly drawn) [Compound 487]	< 75 nM
CCCC(NC(=O)[C@@H]1[C@@H]2[C@H](CN1C(=O)[C@@H](NC(=O)NC1(CS(=O)(=O)C(C)(C)C)CCCCC1)C1(C)CCCCC1)C2(C)C)C(=O)C(=O)NCCCOC(C)C (stereo partly drawn) [Compound 488]	75 to 250 nM

Structure (SMILES)	Ki
CCCC(NC(=O)[C@@H]1[C@@H]2[C@H](CN1C(=O)[C@@H](NC(=O)NC1(CS(=O)(=O)C(C)(C)C)CCCCC1)C1(C)CCCCC1)C2(C)C)C(=O)C(=O)NC(CC)CC (stereo partly drawn) [Compound 489]	75 to 250 nM
CC(C)(C)[C@H](NC(=O)NC1(CS(=O)(=O)C(C)(C)C)CCCCC1)C(=O)N1C[C@H]2[C@@H]([C@H]1C(=O)NC(CCCC(F)F)C(=O)C(=O)NC1CC1)C2(C)C (stereo partly drawn) [Compound 490]	< 75 nM
CC1([C@H](NC(=O)NC2(CS(C)(=O)=O)CCCCC2)C(=O)N2C[C@H]3[C@@H]([C@H]2C(=O)NC(CC2CC2)C(=O)C(=O)NC2CC2)C3(C)C)CCCCC1 (stereo partly drawn) [Compound 491]	< 75 nM
CC(C)(C)[C@H](NC(=O)NC1(CS(C)(=O)=O)CCCCC1)C(=O)N1C[C@H]2[C@@H]([C@H]1C(=O)NC(CC1CC1)C(=O)C(=O)NC1CC1)C2(C)C (stereo partly drawn) [Compound 492]	< 75 nM
CCCC(NC(=O)[C@@H]1[C@@H]2[C@H](CN1C(=O)[C@@H](NC(=O)NC1(CS(=O)(=O)C(C)(C)C)CCCCC1)C1(C)CCCCC1)C2(C)C)C(=O)C(=O)NCc1cccs1 (stereo partly drawn) [Compound 493]	< 75 nM
C=CCNC(=O)C(=O)C(CC1CC1)NC(=O)[C@@H]1[C@@H]2[C@H](CN1C(=O)[C@@H](NC(=O)NC1(CS(C)(=O)=O)CCCCC1)C1(C)CCCCC1)C2(C)C (stereo partly drawn) [Compound 494]	< 75 nM
C#CCCC(NC(=O)[C@@H]1[C@@H]2[C@H](CN1C(=O)[C@@H](NC(=O)NC1(CS(=O)(=O)C(C)(C)C)CCCCC1)C(C)(C)C)C2(C)C)C(=O)C(=O)NCCC1CC1 (stereo partly drawn) [Compound 495]	< 75 nM
CCCC(NC(=O)[C@@H]1[C@@H]2[C@H](CN1C(=O)[C@@H](NC(=O)NC1(CS(=O)(=O)C(C)(C)C)CCCCC1)C(C)(C)C)C2(C)C)C(=O)C(=O)NCCOC (stereo partly drawn) [Compound 496]	< 75 nM
CC1([C@H](NC(=O)NC2(CS(=O)(=O)C(C)(C)C)CCCCC2)C(=O)N2C[C@H]3[C@@H]([C@H]2C(=O)NC(CCC2CCC2)C(=O)C(=O)NC2CC2)C3(C)C)CCCCC1 (stereo partly drawn) [Compound 497]	< 75 nM
CCCC(NC(=O)[C@@H]1[C@@H]2[C@H](CN1C(=O)[C@@H](NC(=O)NC1(CS(=O)(=O)C(C)(C)C)CCCCC1)C(C)(C)C)C2(C)C)C(=O)C(=O)NC1CC1 (stereo partly drawn) [Compound 498]	< 75 nM
CC(C)(C)[C@H](NC(=O)NC1(CS(=O)(=O)C(C)(C)C)CCCCC1)C(=O)N1C[C@H]2[C@@H]([C@H]1C(=O)NC(CCC1CCC1)C(=O)C(=O)NC1CC1)C2(C)C (stereo partly drawn) [Compound 499]	< 75 nM
CC(C)(C)[C@H](NC(=O)NC1(CS(=O)(=O)C(C)(C)C)CCCCC1)C(=O)N1C[C@H]2[C@@H]([C@H]1C(=O)NC(CC1CC1)C(=O)C(=O)NC1CC1)C2(C)C (stereo partly drawn) [Compound 500]	< 75 nM
CCCNC(=O)C(=O)C(CCC1CC1)NC(=O)[C@@H]1[C@@H]2[C@H](CN1C(=O)[C@@H](NC(=O)NC1(CS(=O)(=O)C(C)(C)C)CCCCC1)C1(C)CCCCC1)C2(C)C (stereo partly drawn) [Compound 501]	< 75 nM
CCCNC(=O)C(=O)C(CCC1CC1)NC(=O)[C@@H]1[C@@H]2[C@H](CN1C(=O)[C@@H](NC(=O)NC1(CS(=O)(=O)C(C)(C)C)CCCCC1)C(C)(C)C)C2(C)C (stereo partly drawn) [Compound 502]	< 75 nM
C=CCNC(=O)C(=O)C(CCC(F)(F)F)NC(=O)[C@@H]1[C@@H]2[C@H](CN1C(=O)[C@@H](NC(=O)NC1(CS(=O)(=O)C(C)(C)C)CCCCC1)C(C)(C)C)C2(C)C (stereo partly drawn) [Compound 503]	< 75 nM
C=CCNC(=O)C(=O)C(CCC(F)(F)F)NC(=O)[C@@H]1[C@@H]2[C@H](CN1C(=O)[C@@H](NC(=O)NC1(CS(=O)(=O)C(C)(C)C)CCCCC1)C1(C)CCCCC1)C2(C)C (stereo partly drawn) [Compound 504]	< 75 nM
CCC(C)(C)S(=O)(=O)CC1(NC(=O)N[C@H](C(=O)N2C[C@H]3[C@@H]([C@H]2C(=O)NC(CCC2CC2)C(=O)C(=O)NC2CC2)C3(C)C)C2(C)CCCCC2)CCCCC1 (stereo partly drawn) [Compound 505]	< 75 nM
CCC(C)(C)S(=O)(=O)CC1(NC(=O)N[C@H](C(=O)N2C[C@H]3[C@@H]([C@H]2C(=O)NC(CCC2CC2)C(=O)C(=O)NC2CC2)C3(C)C)C(C)(C)C)CCCCC1 (stereo partly drawn) [Compound 506]	< 75 nM
CCCC(NC(=O)[C@@H]1[C@@H]2[C@H](CN1C(=O)[C@@H](NC(=O)NC1(CS(=O)(=O)C(C)(C)C)CCCCC1)C1(C)CCCCC1)C2(C)C)C(=O)C(=O)NC1CCOCC1 (stereo partly drawn) [Compound 507]	> 250 nM
CCCC(NC(=O)[C@@H]1[C@@H]2[C@H](CN1C(=O)[C@@H](NC(=O)NC1(CS(=O)(=O)C(C)(C)C)CCCCC1)C1(C)CCCCC1)C2(C)C)C(=O)C(=O)NC(C)CC (stereo partly drawn) [Compound 508]	75 to 250 nM
CCCC(NC(=O)[C@@H]1[C@@H]2[C@H](CN1C(=O)[C@@H](NC(=O)NC1(CS(=O)(=O)C(C)(C)C)CCCCC1)C1(C)CCCCC1)C2(C)C)C(=O)C(=O)NC(C)C (stereo partly drawn) [Compound 509]	< 75 nM
C=CCNC(=O)C(=O)C(CCC)NC(=O)[C@@H]1[C@@H]2[C@H](CN1C(=O)[C@@H](NC(=O)NC1(CS(=O)(=O)CC(F)(F)F)CCCCC1)C(C)(C)C)C2(C)C (stereo partly drawn) [Compound 510]	< 75 nM
